# Data from PubChem BioAssay AID1347073 (National Center for Advancing Translational Sciences (NCATS), 2019).
# The campaign covered roughly 45,000 compounds. About 200 (0.44%) were called active. Roughly 7% stayed inconclusive and do not appear here. Calls come from the whole dose curve; as a rule, active = well fitted activation curve with a large enough effect; inconclusive = small, poorly fitted or top-dose-only effect; inactive = no such curve, though single readings can be large or run the other way. Some of the results follow.
# Assay: qHTS of TDP-43 Inhibitors: NCGC Sytravon Library Screen; note: 0% is about no effect; nearly all actives have a fitted effect of over 55% in size
# Conditions: yeast TDP-43 toxicity rescue, BacTiter-Glo growth, 24 h; series mostly up to 46.1 µM; growth rescue (activation): at the top concentration
# In short: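 TDP-43-expressing yeast, pregrown in raffinose, seeded at OD600 0.02 in galactose medium with compound for 24 hr at 30 deg C. Growth read by BacTiter-Glo luminescence, so rescue of toxicity appears as activation.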
row,SMILES,growth rescue (activation)
1,COc1ccc(NC(=O)CNC(=O)c2c(C)nn(C)c2Cl)cc1,inactive: 6.23%
2,O=C(NCCc1nc2ccccc2n1Cc1ccc(Cl)cc1Cl)c1ccco1,inactive: -0.784%
3,COc1ccccc1C(=O)Nc1nnc([C@H]2C[C@H](O)[C@@H](CO)O2)s1,inactive: 8.06%
4,CCc1ccc(NS(=O)(=O)c2ccc3[nH]c(=O)[nH]c3c2)cc1,inactive: 8.56%
5,COc1ccc(CN(CC(=O)NCc2ccc(F)cc2)C(=O)CCC(=O)Nc2cc(C)ccn2)cc1,inactive: -13.3%
6,CCc1ccc(OC2(C)CCN(CCOc3ccc(C)cc3)C2)cc1 (stereo unspecified),inactive: 16.9%
7,O=C(Nc1ccccc1Cl)O/N=C(/c1ccccc1)c1ccccn1,inactive: 24.3%
8,CCOc1cc(N2CCOCC2)c(OCC)cc1NC(=O)COC(=O)c1ccc(Cl)nc1,inactive: -11.3%
9,O=C(Nc1cccc2ccccc12)c1csc(COCCO)n1,inactive: 15%
10,CC1(C(=O)NCC2CC2)Cc2c(-c3ccccc3)ccnc2O1 (stereo unspecified),inactive: 17.8%
11,CC/C(Cc1ccccc1)=N\NC(=O)c1cc(C)oc1C,inactive: 8.73%
12,O=C(NC(=S)Nc1nc(-c2ccc(Br)cc2)cs1)c1ccco1,inactive: 10.8%
13,O=Cc1c(N2CCOCC2)nc2ccccn2c1=O,inactive: -6.64%
14,C[C@H](NC(=O)c1ccc(Br)cc1)C(=O)NCc1ccc(S(N)(=O)=O)cc1,inactive: 5.95%
15,CC(=O)N[C@@H](Cc1c[nH]c2ccccc12)C(=O)NCc1ccccc1,inactive: -4.21%
16,CC1(C)OC2OC(C(=O)N/N=C/c3ccccc3F)C3OC(C)(C)OC3C2O1 (stereo unspecified),inactive: -2.23%
17,O=C(c1ccc(Cl)s1)N1CCN(S(=O)(=O)c2ccc(Cl)cc2)CC1,inactive: -13.3%
18,COc1ccc(OC)c(CN2CCN(S(=O)(=O)c3ccc(NC(C)=O)cc3)CC2)c1,inactive: -1.46%
19,CCOC(=O)/C(=N/Nc1ccc(Br)cc1)N1CC(C)OC(C)C1 (stereo unspecified),inactive: 15.8%
20,Cc1ccc(-c2csc3ncnc(NCCC(=O)O)c23)cc1,inactive: 17.7%
21,CSc1nnc(C)c(/C=C/NOCc2ccc(Cl)cc2)n1,inactive: -21.1%
22,COc1cccc(C(=O)NCC(=O)n2nc(C)cc2C)c1,inactive: 6.58%

row,SMILES,growth rescue (activation)
1,COc1ccc(CCN2C(=O)NC(NS(=O)(=O)c3ccc(NC(C)=O)cc3)(C(F)(F)F)C2=O)cc1OC (stereo unspecified),inactive: 0.0379%
2,c1ccc(-c2cn(-c3ccccc3)c3[n+]2CCS3)cc1,inactive: -1.15%
3,COC(=O)COc1ccc2c(c1C)O/C(=C\c1ccco1)C2=O,inactive: -5.25%
4,CC1(C(=O)NS(=O)(=O)C2CC2)CCN(C(=O)c2c(F)cccc2F)C1 (stereo unspecified),inactive: 0.358%
5,CCN1C(=O)/C(=C/c2nc3ccccc3c(=O)n2-c2ccc(C)cc2)c2ccccc21,inactive: 14.3%
6,COc1ccc(S(=O)(=O)N2CCC(C(=O)NC3CCCC3)CC2)cc1C,inactive: -7.33%
7,Cc1ccc(NC(=O)CSc2nncn2-c2ccccn2)cc1Cl,inactive: -7.39%
8,CCn1ncc(C(=O)Nc2ccc(S(=O)(=O)N3CCCC3)cc2)c1C,inactive: -0.796%
9,C=CCOc1ccc(/C=N/O)cc1Cl,inactive: 26.9%
10,CC(C)(C)NC(=O)C(c1ccncc1)N(Cc1ccc(F)cc1)C(=O)c1ccc(-c2ccccc2)[nH]1 (stereo unspecified),inactive: 18%
11,COc1ccc(S(=O)(=O)N2CCCCC2c2cc(C(=O)NC(C)C)no2)cc1 (stereo unspecified),inactive: 2.59%
12,Cc1ccc2nc(NC(=O)Cn3nc(C)c([N+](=O)[O-])c3C)sc2c1,inactive: 2.05%
13,CCn1c2ccccc2c2cc(NC(=O)CN3CCCC3)ccc21,inactive: -15.2%
14,COc1ccccc1/C=C(/NC(=O)c1ccc(Cl)cc1Cl)C(=O)O,inactive: 0.049%
15,Cc1cccc(N2CCN(C(=O)CCn3c(=O)[nH]c4ccsc4c3=O)CC2C)c1 (stereo unspecified),inactive: 3.53%
16,CN1C(=O)/C(=C/C=C2/CCCN2C)N(C)C1=S,inactive: -8.51%
17,CC(C)(C)NC(=O)COC(=O)c1ccc(Cl)cc1O,inactive: 2.07%
18,O=C(NN1C(=O)c2ccccc2C1=O)C1CC2CCC1C2 (stereo unspecified),inactive: -15.5%
19,CCOC(=O)C1(CCOc2ccccc2)CCN(Cc2nccn2CC)CC1,inactive: 2.97%
20,O=C(NCCc1ccccc1F)c1ccc2c(c1)OCCO2,inactive: 16.5%
21,CC(=O)Nc1ccc(CN(C)c2c(C)nc3ccc(C(=O)Nc4ccc(Cl)c(Cl)c4)cn23)cc1,inactive: 2.03%
22,COCCNC(=O)CSc1ccccc1C(=O)NC1CCSc2ccccc21 (stereo unspecified),inactive: -2.48%

row,SMILES,growth rescue (activation)
1,Cc1ccc(NC(=O)COC(=O)CCc2ccccc2)c(Cl)c1,inactive: 13.6%
2,CCOc1ccc(CN2CCNC(=O)C2CC(=O)NCCC2=CCCCC2)cc1 (stereo unspecified),inactive: -27%
3,Cc1nn(C2CCCCC2)c(N)c1-c1ccccc1,inactive: 20.2%
4,Cc1cc(C)c2nc(-c3cccnc3)cc(C(=O)Nc3ccc(S(=O)(=O)Nc4onc(C)c4C)cc3)c2c1,inactive: 11.7%
5,Cc1c(NS(=O)(=O)c2cc(C(=O)N(C)Cc3ccccc3)ccc2Cl)c(=O)n(-c2ccccc2)n1C,inactive: 11.9%
6,CCC(=O)Nc1ccc(Cl)c(NC(=O)c2ccccc2OC)c1,inactive: 12.1%
7,Cc1cc2c(ncn2C)c(NS(=O)(=O)c2ccc(Cl)cc2)c1C,inactive: 7.18%
8,COc1cc(C(=O)Nc2ccc(C(C)=O)cc2)c(Br)c(OC)c1OC,inactive: 6.43%
9,Cn1cc(CN2CCC(n3nccc3NC(=O)CCc3ccccc3)CC2)cn1,inactive: 11.7%
10,CCN(CC)CCNC(=O)Nc1ccc2c(c1)N(Cc1ccccc1)C(=O)c1ccccc1S2,inactive: 17.7%
11,CCOC(=O)c1cn(CC2CC2)c2cc(F)c(F)cc2c1=O,inactive: 17.3%
12,CC(=O)OCC(=O)Nc1ccc([N+](=O)[O-])cc1Cl,inactive: 4.29%
13,COc1cc2c(cc1OC)C(CC#N)=NC(C)(C)C2,inactive: -0.199%
14,Cc1cc(C)cc(N(CCC(=O)Nc2nnc(C)s2)S(=O)(=O)c2ccc(Cl)cc2)c1,inactive: -8.58%
15,Cc1nn2c(NCCN(C)C)c3c(nc2c1-c1ccccc1)CCCC3,inactive: 8.02%
16,CC(Sc1nc(N)c2c3c(sc2n1)CSC(C)(C)C3)C(=O)Nc1ccccc1 (stereo unspecified),inactive: 7.45%
17,CC(=O)Nc1ccc2c(c1)OCO2,inactive: 7.26%
18,CCc1ccc(S(=O)(=O)/N=C2\C=C(Nc3cccc(C(=O)O)c3)C(=O)c3ccccc32)cc1,inactive: -20.6%
19,O=C(CNC(=O)c1ccc(F)cc1)NCc1ccc(Cl)cc1,inactive: -3.22%
20,COc1ccc(CCNC(=O)CNC(=O)c2nn(-c3ccc(OC)c(OC)c3)c(=O)c3ccccc23)cc1OC,inactive: -1.29%
21,O=C(NCCCc1ccccc1)C1CCC(CNc2c(N3CCCCC3)c(=O)c2=O)CC1 (stereo unspecified),inactive: -1.46%
22,COCCN(C(=S)Nc1ccc(C)cc1C)C(C)c1ccco1 (stereo unspecified),inactive: 16.5%

row,SMILES,growth rescue (activation)
1,CCCS/C(N)=N/N=C/c1ccccc1O,inactive: 11.5%
2,Cc1ccc(CN(C(=O)COc2c(C)cccc2C)C2CCS(=O)(=O)C2)o1 (stereo unspecified),inactive: 6.4%
3,COc1ccc(-c2nn(C)c(=O)c3ccccc23)cc1CNS(C)(=O)=O,inactive: 8.2%
4,CCc1cc(C(=O)OC)c(NC(=O)CN2CCN(C(=O)C3CCCO3)CC2)s1 (stereo unspecified),inactive: 19.2%
5,CCOc1ccc(NC(=O)CSc2nc(NS(=O)(=O)c3ccc(C)cc3)cc(=O)[nH]2)cc1,inactive: 7.29%
6,COc1ccc(-c2csc(NC(=O)COc3ccc(N(C)S(=O)(=O)c4ccc(C)cc4)cc3)n2)cc1,inactive: 3.84%
7,Cc1ccc(NC(=O)CCS(=O)(=O)c2ccc(Br)cc2)nc1,inactive: 6.98%
8,Cc1nc(S/C(=C\c2ccc(OCc3ccccc3Cl)cc2)C(=O)O)n[nH]1,inactive: 0.826%
9,C=CCn1c(P(C)(=O)O)nc2ccccc21,inactive: 10.8%
10,COc1ccccc1-c1noc(CCCC(=O)NC2CCCC2)n1,inactive: -6%
11,COc1ccc(CCNC(=O)c2coc3ccccc3c2=O)cc1,inactive: 11.5%
12,O=C(CSc1ccccc1)Nc1ccc(-c2nc3ccccc3[nH]2)cc1,inactive: 8.79%
13,CCCN(CC(=O)Nc1ccccc1OC)C(=O)c1ccccn1,inactive: 14.6%
14,O=C(CSc1nnc(-c2ccccc2O)o1)NC1CCCCC1,inactive: 25.7%
15,O=C(CNC(=O)C1CCCCC1)NCc1ccco1,inactive: -8.68%
16,c1cncc(-c2nc3ccccc3o2)c1,inactive: 28.2%
17,O=C(c1cccs1)N1CCN(Cc2ccc3c(c2)OCO3)CC1,inactive: 18.1%
18,COc1cc(NC(=O)c2cccs2)c(OC)cc1NC(=O)CCC(=O)Nc1ccc(C)cc1,inactive: -7.47%
19,CCCCc1nc(Cl)c(C#N)c2c1CCC2,inactive: -5.15%
20,COc1ccc(/C=N/Nc2c(Cl)cc(Cl)cc2Cl)cc1CN1CCOCC1,inactive: -15.9%
21,COc1ccc(N2C(=O)CC(N(CCc3ccccc3)C(=O)/C=C/C(=O)O)C2=O)cc1 (stereo unspecified),inactive: -1.13%
22,COc1cc(C(=O)Nc2nnc(C(C)(C)C)s2)c([N+](=O)[O-])cc1OC,inactive: 18.4%

row,SMILES,growth rescue (activation)
1,COc1ccccc1C(c1nnnn1C(C)C)N1CCN(C(=O)c2ccco2)CC1 (stereo unspecified),inactive: 14.2%
2,COc1ccc(-c2cc(=Nc3c(C)n(C)n(-c4ccccc4)c3=O)c3ccccc3o2)cc1,inactive: 21%
3,CN(C(=O)COC(=O)c1cc(NS(=O)(=O)c2cc([N+](=O)[O-])ccc2Cl)ccc1O)C1CCCCC1,inactive: 18.8%
4,CCCCOc1ccc(/C=C/C(=O)Nc2ccc(C(N)=O)cc2)cc1,inactive: -4.7%
5,Cc1cccc(C)c1NCC(=O)N1CCN(Cc2ccccc2)CC1,inactive: 9.36%
6,O=C(NCc1cccc(Cl)c1)c1ccc(-c2ccc(F)c(F)c2)c2ccoc12,inactive: 13.1%
7,NC(=O)c1nnsc1Sc1c(C(N)=O)nnn1-c1cccc(N)c1,inactive: 7.47%
8,Cc1ccc(N(O)C(=O)NCCCCNC(=O)N(O)c2ccc(C)cc2)cc1,inactive: 15.1%
9,CCc1nc2ccc(C(=O)N(CC)CCN(C)C)cn2c1N(C)Cc1ccc(OC)cc1,inactive: 7.1%
10,CN(C)CCCNc1nc(N)c([N+](=O)[O-])c(NCc2ccccc2)n1,inactive: 6.58%
11,COc1ccc(/C=C(/NC(=O)/C=C/c2ccccc2)C(=O)NCCCCCC(=O)O)cc1,inactive: -0.967%
12,COC(=O)c1ccc(NC(=O)CNCc2ccncc2)cc1,inactive: 5.28%
13,c1ccc2c(c1)nnn2CNc1nccs1,inactive: -0.765%
14,O=[N+]([O-])c1ccc(Cc2nnc(-c3ccccc3Cl)o2)cc1,inactive: 22.8%
15,CCCCC(=O)Nc1ccc(C(=O)Nc2ccc(S(=O)(=O)Nc3nccc(C)n3)cc2)cc1,inactive: 15.9%
16,COc1ccccc1NC(=O)c1ccccc1C(=O)N(C)Cc1ccccc1,inactive: 21.6%
17,Cc1cccc(Nc2nc(N)nc(CN3CCC(C(N)=O)CC3)n2)c1C,inactive: 11.4%
18,CC1(C(=O)NS(=O)(=O)c2cccc(Cl)c2)CCN1C(=O)c1cccc(F)c1 (stereo unspecified),inactive: 3.27%
